Measured values reported in the supplement of paper PMC3724861.
The other results are listed elsewhere or left out.

These sequences were tested on T1, Caupolican (Caup) homeodomain DNA-binding domain (assay: PBM E-score (8-mer, recovered from the published 9-mer minima) (E-score (dimensionless, -0.5 to 0.5)); Drosophila protein; higher = stronger relative binding preference, active = 0.31 or more).
T1 sequence: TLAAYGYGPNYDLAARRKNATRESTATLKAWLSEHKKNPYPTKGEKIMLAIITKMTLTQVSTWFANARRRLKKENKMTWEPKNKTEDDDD
In short: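 An enrichment score, with higher meaning stronger, expresses relative binding preference for each short DNA word. The protein used was Caup's homeodomain DNA-binding domain (residues 214-303), produced by in vitro transcription and translation and tested at 100 nM on custom-designed protein binding microarrays. The 8-mer values were recovered from published 9-mer scores, each equal to the lower of its two constituent 8-mer scores.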

PBM E-score, ≥ 0.089:
TCGTCACA

PBM E-score, active:
GTACACGA 0.427, ACCATGTC 0.408, GACATGAC 0.394, AACATGTG 0.402, ACATCATA 0.318, ATGTTACA 0.406, GTTGTTAA 0.349

PBM E-score, inactive:
CATTTGGC -0.102, GGCAGGGA -0.0883, CAATCGCG -0.0683, ACGCGACC -0.119, AGTAAGGA 0.0816, TAACCCAA 0.0279, CGTCGAGC -0.0905, TCATGGCA -0.0694, GGCATACC -0.123, ATATGAGC 0.0536, CAATAAGC -0.0471, AGTAGTAC 0.29, CCTGCGTA -0.0458, AACTGTTA 0.133, AACCGAGT -0.0739, CAAAGCTG -0.0401, AAGGTTAT -0.0128, GAGTGGCC -0.132, AATGGTTC 0.114, ACACGTCG 0.212, GGCAAAGA -0.0555, GCATCGCC -0.154, GACCGAAC -0.0312, ATGAGACA 0.189, AGTGCGTG -0.0479, TTACTGAA 0.0619, CCGTATGA 0.0605, ATAGATAC 0.135, GACATTCA 0.124, CGCGCTGA -0.115, AGCAGTCC -0.125, CCGGTTTC -0.117, AGGCCCTG -0.09, GACAAATC 0.189, CTAAGACA 0.176, CGCCTTAC -0.0507, GAAAAGAC 0.042, CAAAAGGG -0.0805, TCTGCTCA -0.0318, CAATCGAG -0.0637, GCGCTGCC -0.257, GAAATGCA 0.0706, CTGCTATA -0.00397, GCGTGACA 0.211, CCTAAGCA -0.103, CATTCCCC -0.142, CGGTTTTA 0.0649, CGCTGGAA -0.167, GGAAGTAA 0.0849, CGACGGCA -0.0558, AAGCTCTA -0.0108, ATCACGGG -0.141, CCGAATTC -0.0114, GGTAATTA 0.125, AGATAACG 0.101, GGATTAGA -0.0283, CACTACGA 0.0511, GAAGCTGA -0.0436, GCACCGAC -0.014, GATTTACA 0.246, CATAATGC 0.0196, CACTGTAC 0.055, ACGTTGCT 0.0384, GAACGACA 0.217, GCCTCCCA -0.246, GGCAGGAC -0.136, CCGTACCA -0.0768, CGTTACCA 0.17, CTTATTTC 0.132, ATTACTTA 0.164, CTAAAGAG -0.0699, CTAGACGC -0.109, CCCCGACG -0.152, CATAGCAC 0.225, CGGTGACA 0.223, CTAAACAG 0.0191, AACCCGCG -0.0635, CATCACTA 0.208, GAATCATA 0.136, AAAAGTGC -0.0227, CCGGTTTA -0.0443, AGGCCAGA -0.105, CATTTAAA 0.135, CCACCGGG -0.284, GTCATAAC 0.172, ACAGGCCC -0.136, AACTAAAT 0.0946, AATCACCA 0.105, CCACTTTC -0.0779, AGTGGCGG -0.19, CGAACCGA -0.0372, TAGCTCCA -0.0294, CAGCCCAA -0.0743, CCCACTGC -0.194, GGCCACGA -0.203, CGAATGGC -0.138, TCGGCCAA -0.102, CAGGGACG -0.0563, AGATACGA 0.122, ATGGGCTG -0.0443, CACTAGCA 0.111, GTAACGAC 0.0908, TACCAAAA 0.104, CATTCTTC 0.0867, ATTACGAG 0.171, CCGGTCCC -0.268, CTCTTAGA -0.0856, AGAAAAAC 0.0686, CCATCCCC -0.241, CACATGCG 0.023, AGCGTGGG -0.256, AATTAGCC -0.0208, AGATTATG 0.0903, ACGGTTTG -0.0137, AACTTGCA 0.102, GCCCCTGA -0.167, CCGTGAAA -0.0526, CTTTACTA 0.109, CGGGATCC -0.132, ATAAGTAA 0.143, CCTCTTCA -0.0999, CAATGGAA -0.0452, CTAGGCAC -0.0927, GTACCTCA 0.136, CTCGCGAA -0.0996, AAAGGAAG -0.0802, GCCTGATA -0.0429, AGCATCAT 0.146, ACATACCG 0.127, GACCACTC -0.0383, AGCTCGCA -0.169, AACTCGCT -0.0482, TACGATAA 0.149, CAAATTTC 0.0393, GAGCCAGA -0.0571, ACAGTCTG 0.0152, GAGAGCCC -0.275, GATTTGAA 0.171, CCGTCAAA -0.0594, CGGATAGC -0.0897, TCGCCCGA -0.118, ACTAAGGA -0.0534, TACTCAGA 0.00964, ACATCGAT 0.269, ATTAGAGC 0.0699, GGAAATTA 0.145, CTCAGTCA -0.00826, AGCTGGTA -0.0349, GACACGCC 0.148, GTGGAGGA -0.108, CTGACTGC -0.0466, ACGGGCGG -0.266, ATCCGTCA -0.0102, AAGTTTCT 0.00308, TCAGCAAA 0.0389, AAGCTTTC -0.0748, TCGACTCA 0.0588, CAAGCCGG 0.00547, ACGCCTAT -0.0451, GAGAGCGC -0.205, CGCGACCG -0.128, GAAATTAC 0.148, GCAGCTAA -0.112, CGCAGTAA -0.025, ATCTGCAG 0.0615, AGTTCGGG -0.0886, GCATCGTA -0.088, GCAGTCTA 0.0232, CAGCTTGC -0.0868, GCGAACGC -0.108, CTAGCAGC -0.0489, TAAGTTCA 0.0196, CACTGTTC 0.107, ATATACAG 0.186, ACTAGTTC 0.205, ACCCCTTG -0.145, CCAGATTA 0.0323, AAAAGTAC 0.155, ACACGGAA 0.291, CGGGCAAA -0.0392, AGGCTTTA -0.0555, ATCCTTAC 0.0786, CAGAGCCA -0.133, ATCGATAA 0.205, ACCCGTGG -0.246, CTCGACAA 0.174, AACCTACG 0.0502, CAATATGG 0.101, CGTAAGAG 0.0163, GCTAAGAA -0.0875, TATGGAGA -0.0233, CCTGAATC -0.00571, GAATGATC 0.0856, ACGTACCG -0.0209, CGTTCGTA 0.068, AGGTACCT -0.0585, GCTATAAA 0.105, CTTAGCAC -0.0372, AGCCGGCT -0.209, CTTAGCCC -0.0843, AGGATCTG 0.0245, AGTTAGTA 0.0941, ACTGCTAC 0.142, GACGAAAA 0.0444, CGTTAGCA 0.0587, GGTTTCCA -0.0201, AGCATCGG -0.0375

PBM E-score, ≥ 0.0985:
ATAGATGA

PBM E-score, ≥ 0.158:
GTTTTGGA

PBM E-score, ≥ -0.0298:
TCGTGCCA

PBM E-score, ≥ -0.0599:
GTGAGCCA

PBM E-score, ≥ 0.128:
ATTTCCTA

PBM E-score, ≥ 0.204:
ACCATACA

PBM E-score, ≥ 0.192:
GGTTAGTA

PBM E-score, ≥ 0.0868:
GAAAAAAA

PBM E-score, ≥ 0.221:
ATAAATAA

PBM E-score, ≥ 0.122:
AGTTTTTG
